In patent US5523314A, “Compounds useful as hypoglycemic agents and for treating Alzheimer's disease” (priority 1994, dated 1996):
Where “and” joins values, the source holds several entries; their conditions need not be identical. Equal entries are not always repeated. For some of these results: At least one read-out could not be matched to a standard name with certainty. For some of these results: At least one structure is not confirmed: it was looked up by name or label, or the drawing left a doubt.

Tests used:
[1] = system: blood glucose level; assay: Hypoglycemic activity in obese diabetic mice (Table 1); assay type: in vivo, male viable yellow obese-diabetic mice; details: intraperitoneal
Experimental: The hypoglycemic activity of the compounds of the present invention was determined by testing the efficacy of the compounds in vivo in male viable yellow obese-diabetic mice. The test procedure is described in detail below.
Test formulations were prepared by dissolving the test compound in a saline solution containing 2% Emulphor (a polyoxyethylated vegetable oil surfactant from GAP Corp.) to provide the dose level desired. Each test formulation was administered to six viable yellow obese-diabetic mice intraperitoneally at the beginning of the experiment. Blood glucose levels were determined immediately before the first dose and at 2 and 4 hours thereafter using glucose oxidase. A mean was taken of the 6 values obtained before the first dose and at the 2 and 4 hour intervals. In Table 1, Column 1 provides the example number of the test compound, Column 2 provides the dose level of compound tested, and Columns 3 and 4 provide a measurement of the test animal's blood glucose level 2 and 4 hours after test compound administration, respectively, as a percentage of the test animal' s pre-administration blood glucose level.

[2] = molecular target: T1, Human liver cathepsin D (Homo sapiens, UniProt P07339); assay: Cathepsin D inhibition, fluorometric assay (Tables 5 and 6); assay type: biochemical; details: compared to structurally similar compounds known in the art; in words
T1 construct: purchased Athens Research and Technology, Athens, Ga; host or cells: human liver
T1 sequence (P07339 169-412 limits assumed): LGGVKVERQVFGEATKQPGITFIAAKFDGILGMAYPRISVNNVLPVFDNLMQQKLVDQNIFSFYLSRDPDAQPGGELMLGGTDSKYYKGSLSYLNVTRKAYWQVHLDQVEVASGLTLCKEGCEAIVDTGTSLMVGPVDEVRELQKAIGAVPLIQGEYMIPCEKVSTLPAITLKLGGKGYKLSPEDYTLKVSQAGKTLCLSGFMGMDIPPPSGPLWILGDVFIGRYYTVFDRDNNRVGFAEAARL
T1 sequence (P07339 65-161 limits assumed): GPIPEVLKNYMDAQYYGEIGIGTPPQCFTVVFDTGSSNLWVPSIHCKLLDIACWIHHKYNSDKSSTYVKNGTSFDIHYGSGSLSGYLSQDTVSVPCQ
Experimental: Human liver cathepsin D (Athens Research and Technology, Athens, Ga.) was diluted in assay buffer, 200 mM NaOAc, pH 4.5, 150 mM NaCl to 500 ng/mL and then 100 μL of this cathepsin D solution was added to each well of a 96 well plate with the exception of control wells which received just 100 μL of assay buffer. […] Blank and enzyme control wells each received 5 μL of the DMSO vehicle.
After incubation at 37° C. for 30 minutes, cathepsin D activity was terminated by the addition of 100 μL per well of 400 mU/mL microsomal leucine aminopeptidase (EC 3.4.11.2, Sigma, St. Louis, Mo.) in 1M Tris-HCl, pH 8.0.
Following a two hour incubation at 37° C., to allow the aminopeptidase to release the fluorophore, 7-amido-4-methylcoumarin (AMC) from the products of cathepsin D cleavage, the plates were again analyzed in the fluorometer. In order to check for potential false positives, i.e., inhibitors of microsomal leucine aminopeptidase, residual aminopeptidase activity was monitored directly in each well by the addition of 20 μL/well of 2.5 mM Leu-pNA (Bachem Biosciences, Philadelphia, Pa.) in 10% DMSO.

CCOc1cc(C=C2SC(=S)NC2=O)ccc1O [Example 32, 5-[(3-ethoxy-4-hydroxyphenyl)methylene]-2-thioxo-4-thiazolidinone]
Percent of Initial Blood Glucose Level After 2 hrs. ([1]; 50 mg/kg): 80 ± 18%
Percent of Initial Blood Glucose Level After 4 hrs. ([1]; 50 mg/kg): 66 ± 11%

CCOc1ccc(C=C2SC(=S)NC2=O)cc1OCC [Example 38, 5-[(3,4-diethoxyphenyl)methylene]-2-thioxo-4-thiazolidinone]
Percent of Initial Blood Glucose Level After 2 hrs. ([1]; 10 mg/kg): 73 ± 8%
Percent of Initial Blood Glucose Level After 4 hrs. ([1]; 10 mg/kg): 59 ± 7%
Percent of Initial Blood Glucose Level After 2 hrs. ([1]; 50 mg/kg): 60 ± 5% and 96 ± 6% and 86 ± 4%
Percent of Initial Blood Glucose Level After 4 hrs. ([1]; 50 mg/kg): 59 ± 4% and 80 ± 3% and 81 ± 5%

CCCCOc1ccc(C=C2SC(=S)NC2=O)cc1OC [Example 41, 5-[(3-methoxy-4-butoxyphenyl)methylene]-2-thioxo-4-thiazolidinone]
Percent of Initial Blood Glucose Level After 2 hrs. ([1]; 5 mg/kg): 95 ± 4%
Percent of Initial Blood Glucose Level After 4 hrs. ([1]; 5 mg/kg): 71 ± 4% and 97 ± 5%
Percent of Initial Blood Glucose Level After 2 hrs. ([1]; 10 mg/kg): 97 ± 7% and 92 ± 7%
Percent of Initial Blood Glucose Level After 4 hrs. ([1]; 10 mg/kg): 59 ± 4% and 75 ± 5% and 92 ± 7%
Percent of Initial Blood Glucose Level After 2 hrs. ([1]; 25 mg/kg): 58 ± 6% and 72 ± 7% and 74 ± 7% and 87 ± 5%
Percent of Initial Blood Glucose Level After 4 hrs. ([1]; 25 mg/kg): 45 ± 5% and 64 ± 4% and 70 ± 8% and 85 ± 6%
Percent of Initial Blood Glucose Level After 2 hrs. ([1]; 50 mg/kg): 64 ± 6% and 77 ± 5%
Percent of Initial Blood Glucose Level After 4 hrs. ([1]; 50 mg/kg): 51 ± 4% and 54 ± 5% and 62 ± 5% and 72 ± 8%

CCCCCOc1ccc(C=C2SC(=S)NC2=O)cc1OC [Example 45, 5-[(3-methoxy-4-pentoxyphenyl)methylene]-2-thioxo-4-thiazolidinone]
Percent of Initial Blood Glucose Level After 2 hrs. ([1]; 25 mg/kg): 83 ± 10%
Percent of Initial Blood Glucose Level After 4 hrs. ([1]; 25 mg/kg): 78 ± 12%
Percent of Initial Blood Glucose Level After 2 hrs. ([1]; 50 mg/kg): 68 ± 2%
Percent of Initial Blood Glucose Level After 4 hrs. ([1]; 50 mg/kg): 66 ± 4%

CCCOc1ccc(C=C2SC(=S)NC2=O)cc1 [Example 61, 5-[(4-propoxyphenyl)methylene]-2-thioxo-4-thiazolidinone]
Percent of Initial Blood Glucose Level After 2 hrs. ([1]; 50 mg/kg): 76 ± 5% and 98 ± 8%
Percent of Initial Blood Glucose Level After 4 hrs. ([1]; 50 mg/kg): 79 ± 4%

CC(C)(C)c1cc(C=C2SC(=S)NC2=O)cc(CSc2ccccc2)c1O [Example 71]
ability to inhibit cathepsin D [2]: surprising ability to inhibit cathepsin D levels

CCOc1cc(C=C2SC(=S)NC2=O)cc(CSc2ccccc2)c1O [Example 72]
ability to inhibit cathepsin D [2]: surprising ability to inhibit cathepsin D levels
